Measurements taken from PubChem BioAssay AID1508642 (National Center for Advancing Translational Sciences (NCATS), 2021).
The campaign covered roughly 43,000 compounds. About 200 (0.47%) were called active. Inconclusive results (about 12%) are left out. Calls follow the shape of the dose curve; as a rule, active = well fitted cell-killing curve with a large enough effect; inconclusive = small, poorly fitted or top-dose-only effect, or effect the other way; inactive = flat fitted curve, though single readings scatter. The list shows a part of the results.

Assay: Cell viability qHTS assay in S16 Pmp22-F2sN cells; also: nearly all actives have a fitted effect of over 65% in size
Settings: S16 Pmp22-F2sN Schwann cells (luciferase reporters placed in the Pmp22 gene) viability, CellTiter-Glo, 24 h; series mostly up to 57.5 µM; activity change, negative = cytotoxicity: at the top concentration
How it was run: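 Seed 500-1,000 S16 Pmp22-F2sN cells per well in phenol-red-free DMEM with 10% heat-inactivated FBS; pin-add 23 nL compound; incubate 24 h at 37C; add CellTiter-Glo, wait 15 min protected from light; read luminescence.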
% is scaled to controls: 0 for no effect and ±100 for the full control effect.

| Structure (SMILES) | activity change, negative = cytotoxicity |
| --- | --- |
| Cc1nnc(N2CCC(C(=O)NCCC(C)C)CC2)c2nn(-c3ccc(Cl)cc3)c(C)c12 | inactive: -17.3% |
| CCOc1cc(Cl)c(S(=O)(=O)n2ccnc2)cc1Cl | inactive: 5.68% |
| CCC(C(=O)N1CCN(c2ccccc2)CC1)n1c(C)c2cnn(-c3ccccc3)c(=O)c2c1C (stereo not given) | inactive: 4.89% |
| O=C(NC1CCCC1)c1ccc2c(=O)n(Cc3ccccc3)c(SCc3cccc(F)c3)nc2c1 | inactive: 1.33% |
| CCN(CC)c1ccc(NC(=O)CCCN2C(=O)C(c3ccccc3)Oc3cccnc32)c(C)c1 (stereo not given) | inactive: 8.23% |
| COC(=O)c1ccc(NC(=O)CN2C(=O)CC(c3ccccc3)Sc3ccccc32)cc1 (stereo not given) | inactive: 18.9% |
| Cc1cc(C)n(C(C)CC(=O)Nc2ccc(C)c(N(C)C)c2)n1 (stereo not given) | inactive: 2.05% |
| CCc1ccc(NC(=O)Cn2ccn(-c3ccc(C)c(C)c3)c(=O)c2=O)cc1 | inactive: -4.95% |
| Cc1ccc(S(=O)(=O)c2nc(S(=O)(=O)c3ccccc3)sc2NCCCOC(C)C)cc1 | inactive: -18.4% |
| COc1ccc(NC(=O)c2oc3ccccc3c2NC(=O)Cc2coc3c(C)c(C)ccc23)cc1 | inactive: 8.53% |
| COc1ccccc1-c1cc(C(=O)NCc2ccccc2)c2c(-c3ccc(C)cc3)[nH]nc2n1 | inactive: -2.01% |
| COc1ccc(-c2nc3cc(NC(=O)CSc4ccc(C)cc4)ccc3o2)cc1 | inactive: 22.5% |
| CCN(CC)CCNC(=O)c1c2c(nc3ccccc13)C(=O)N(C1CCCCC1)C2 | inactive: 4.26% |
| Cc1ccc(S(=O)(=O)NCCc2cn3ccsc3n2)c(C)c1 | inactive: -1.32% |
| COc1cccc(NC(=O)Cn2cc(C(=O)c3ccc(C)cc3)c(=O)c3cc(OC)ccc32)c1 | inactive: -12.5% |
| Cc1ccccc1NC(=O)Cn1c(=O)n(Cc2ccc3c(c2)OCO3)c(=O)c2ccccc21 | inactive: 12.9% |
| CCOc1ccc(NC(=O)/C(C#N)=C\c2ccc(-c3ccc(Cl)cc3)o2)cc1 | inactive: 12.5% |
| Cc1c(Cl)cccc1NC(=O)CCS(=O)(=O)c1ccc2c(c1)CC(=O)N2C | inactive: 17.7% |
| O=C(CSc1n[nH]c(-c2ccc(F)cc2)n1)NCCc1ccccc1 | inactive: 2.6% |
| COc1ccc(-c2csc(=Nc3ccccc3)n2CCO)cc1F | inactive: -20.7% |
| CCOC(=O)c1c(Nc2ccc(OC)cc2)nnc(-c2ccccc2)c1-c1ccccc1 | inactive: -16% |
| CCOc1ccc(NC(=O)COc2ccc(S(=O)(=O)NC3CCCCC3)cc2)cc1 | inactive: 11.7% |
| COc1ccc(Nc2c(-c3cccc(O)c3)nc3cnccn23)cc1 | inactive: -9.07% |
| CCOC(=O)N1CCc2c(sc3c2c(=O)n(-c2ccc(Cl)cc2)c(=O)n3CC(C)C)C1 | inactive: 13.1% |

| Structure (SMILES) | activity change, negative = cytotoxicity |
| --- | --- |
| Cc1cccn2c(=O)c(C(=O)NCc3cccc(F)c3)cnc12 | inactive: -3.31% |
| CCOc1ccc(CNC(=O)Cc2ccc(NC(=O)N3CCSc4ncccc43)cc2)cc1 | inactive: 0.137% |
| Cc1cccc(-c2nc3scc(CCNS(=O)(=O)c4ccc5c(c4)OCCO5)n3n2)c1 | inactive: -2.39% |
| Cc1ccc(Cl)cc1Nc1nn2c(=O)c3ccc(C(=O)NCc4ccc(F)cc4)cc3nc2s1 | inactive: -1.25% |
| CCCOc1ccc(-c2nc(SCC(=O)c3ccc(Cl)cc3)n[nH]2)cc1 | inactive: 3.67% |
| CC(=O)c1ccc(N2CCN(C(=O)C3CCN(S(=O)(=O)c4cn(C)cn4)CC3)CC2)cc1 | inactive: -4.05% |
| Cn1c(=O)c2sccc2n2c(CCC(=O)NCc3ccc(Cl)cc3)nnc12 | inactive: 3.26% |
| CCOc1ccccc1C(=O)NC1(C(F)(F)F)C(=O)Nc2c1c(=O)[nH]c(=O)n2-c1ccc(F)cc1 (stereo not given) | inactive: -0.918% |
| CSc1ccc(CCNC(=O)CCc2c(C)nc3ncnn3c2C)cc1 | inactive: 0.0605% |
| CC(C)c1cnc2c(c1SCC(=O)NCc1ccccc1Cl)c(=O)n(C)c(=O)n2C | inactive: -3.31% |
| Cc1cccc2c1-c1sc(C(=O)N(C)c3cccc(Cl)c3)cc1CO2 | inactive: 2.9% |
| COc1ccc(C(CC(=O)Nc2ccc(C(C)=O)cc2)N2Cc3ccccc3C2=O)cc1 (stereo not given) | inactive: 7.54% |
| COc1ccc(NC(=O)NC2COc3ccccc3C2)cc1Cl (stereo not given) | inactive: 18.8% |
| Cc1ccc(CN2C(=O)c3ccccc3CC2(C)C(=O)NC2CCCCC2)cc1 (stereo not given) | inactive: 14.6% |
| Cc1cccc(N2CCN(C(=O)c3noc4c3COc3ccc(C)cc3-4)CC2C)c1 (stereo not given) | inactive: 9.62% |
| Cc1ccc(C(=O)Nc2cccc3cccnc23)cc1Cl | inactive: 4.4% |
| COc1cccc(OC)c1C(=O)NCCc1csc(-c2ccc(Cl)cc2)n1 | inactive: 3.85% |
| COC(=O)c1c(-c2cccs2)csc1NC(=O)COc1ccc(C)cc1 | inactive: 2.54% |
| O=c1c(NCc2cccs2)nccn1-c1ccc(F)cc1 | inactive: -2.49% |
| Cc1nc2ccccc2n1CCc1nc2c3ccccc3nc(SCc3ccc(C#N)cc3)n2n1 | inactive: -1.26% |
| COc1cccc(NC(=O)CN(CCc2ccccc2)S(=O)(=O)c2ccc(Cl)cc2)c1 | inactive: -2.48% |
| Cc1cccc(-c2nc3c4ccccc4nc(NCCc4ccccc4)n3n2)c1 | inactive: 7.89% |
| O=S(=O)(NCc1nc2cccnc2n1Cc1ccccc1Cl)c1ccc2c(c1)CCCC2 | inactive: -2.07% |
| O=C(COCc1cc(-c2ccc(F)cc2)on1)Nc1cc(F)ccc1F | inactive: 5.07% |

| Structure (SMILES) | activity change, negative = cytotoxicity |
| --- | --- |
| O=C(CCn1cccn1)Nc1ccc(Br)cc1F | inactive: 6.29% |
| CCOC(=O)CSc1nc2ccc(NC(=O)c3cccc(F)c3)cc2s1 | inactive: 3.52% |
| COc1ccc(CNC(=O)c2ccc3c(c2)N(Cc2c(F)cccc2Cl)C(=O)CS3)cc1 | inactive: 2.85% |
| CCc1cc2c(cc3c(=O)n(CCCC(=O)NCc4cccc(Cl)c4)ncn32)s1 | inactive: -4.2% |
| Cc1cc2c(n1-c1ccc(C(=O)NCc3ccccc3Cl)cc1)CCCC2 | inactive: -1.11% |
| O=C(CCSCc1ccccc1Cl)NCc1ccc(F)cc1Cl | inactive: -8.95% |
| COc1ccccc1N1CCN(C(=O)c2c(C)oc3ncn(C)c(=O)c23)CC1 | inactive: 2.78% |
| CCOc1ccccc1NS(=O)(=O)c1ccc2c(c1)oc(=O)n2C | inactive: -11.9% |
| CCN(CC)CCCNC(=O)Cc1csc2nc(-c3ccc(Cl)cc3)cn12 | inactive: -14.3% |
| Cc1ccc(CNC(=O)c2cc(-c3ccc(C)cc3)nc3n[nH]c(-c4cccc([N+](=O)[O-])c4)c23)cc1 | inactive: 0.0627% |
| CC1CCN(S(=O)(=O)c2ccc3c(c2)N(CC(=O)NCCCN2CCCCC2)C(=O)CS3)CC1 | inactive: 12.5% |
| CC(C)N(C(=O)Cn1cc(S(=O)(=O)Cc2ccc(Br)cc2)c2ccccc21)C(C)C | inactive: 14.1% |
| CCOc1ccc(S(=O)(=O)NCCc2c(C)[nH]c3c(Cl)cccc23)cc1C | inactive: 7.78% |
| Cc1cccc(CC(=O)Nc2ccc3nc(N4CCC(C)CC4)cc(C)c3c2)c1 | inactive: 18.7% |
| COc1ccc(C(=O)Nc2ccc3nc(SCC(=O)N(C)c4ccccc4)sc3c2)cc1 | inactive: -16.9% |
| CC(C)(C)c1ccc2c(c1)N(CC(=O)NCCCN1CCN(c3ccccc3F)CC1)C(=O)CO2 | inactive: -15.5% |
| Cc1cc(C)c(NC(=O)Cn2c(=O)n(CCC(=O)NCc3ccccc3Cl)c(=O)c3sccc32)c(C)c1 | inactive: 6.19% |
| COc1ccc(-c2cn3nc(N4CCC(C(=O)Nc5cc(Cl)ccc5C)CC4)sc3n2)cc1 | inactive: 2.74% |
| COc1ccc(NC(=O)CCCn2c(=O)c3cccn3c3cccnc32)cc1Cl | inactive: -0.546% |
| O=C(CN1C(=O)C2(SCC(=O)N2c2cccc(Cl)c2)c2ccccc21)NCc1ccccc1 (stereo not given) | inactive: -13.1% |
| O=C(CCCCCn1c(=O)c2sccc2n(CC(=O)Nc2cc(C(F)(F)F)ccc2Cl)c1=O)NCc1ccccc1Cl | inactive: -11% |
| CCc1cccc(-n2c(=O)c3cccnc3n2CC(=O)NCc2ccc(C)cc2)c1 | inactive: 5.45% |
| Cc1ccc(NC(=O)Cn2cnc3onc(-c4ccc(F)cc4)c3c2=O)c(Cl)c1 | inactive: 0.987% |
| COc1ccccc1-c1cc2nc(C)c(CCC(=O)NCCc3cccc(C)c3)c(C)n2n1 | inactive: 20.7% |

| Structure (SMILES) | activity change, negative = cytotoxicity |
| --- | --- |
| CC(=O)Nc1ccc(Nc2ncnc3c2cnn3C)cc1 | inactive: 5.86% |
| CCOC(=O)c1c(NC(=O)c2cc(OC)c(OC)c(OC)c2)sc2c1CCCC2 | inactive: -10.5% |
| COc1ccccc1-c1noc(CCCC(=O)Nc2cccc(C(F)(F)F)c2)n1 | inactive: 2.8% |
| CCOc1ccccc1CNC(=O)c1oc2c(c1C)-c1[nH]ncc1CC2 | inactive: 0.184% |
| CC1CCN(c2ncnc3c2c(-c2ccccc2)cn3-c2ccc(Br)cc2)CC1 | inactive: 12.9% |
| CCCN(CCC)C(=O)Cn1c(=O)n(CCCCCC(=O)NCc2ccc3c(c2)OCO3)c(=O)c2sccc21 | inactive: 8.22% |
| Cc1ccc2occ(-c3cc(-c4ccc(F)cc4)nc4c3COc3ccc(F)cc3-4)c(=O)c2c1 | inactive: 28.4% |
| COC(=O)c1ccc(NC(=O)CCc2c(C)nc3c(c(C)nn3C(C)(C)C)c2C)cc1 | inactive: -9.09% |
| CCN(C(=O)CSc1nc(-c2ccccc2)no1)c1ccccc1 | inactive: 8.76% |
| COc1ccc(OC)c(CNC(=O)c2nn(C)c3c2CS(=O)(=O)c2ccccc2-3)c1 | inactive: -2.72% |
| CN(C)C(=O)c1ccc2c(c1)N(CC(=O)NCc1ccccc1Cl)C(=O)C1CCCCN21 (stereo not given) | inactive: 4.01% |
| Cc1ccccc1CSc1nc(-c2cccc(F)c2)nc2c1Cc1c(CO)cnc(C)c1O2 | inactive: 5.17% |
| Cc1ccc2nc(-c3ccc(C)o3)c(Nc3ccc4c(c3)OCCO4)n2c1 | inactive: -2.49% |
| COc1ccc(NC(=O)c2oc3ccccc3c2NC(=O)Cc2coc3ccc(C)cc23)cc1 | inactive: -3.93% |
| COc1ccc(N2CCN(C(=O)CN3C(=O)COc4ccc(S(=O)(=O)N5CCC(C)CC5)cc43)CC2)cc1 | inactive: 12.4% |
| COc1ccc(N2CC(NC(=O)C3CCCCC3)CC2=O)cc1OC (stereo not given) | inactive: 2.74% |
| O=C(c1cnc2c(c1)COc1ccc(Cl)cc1-2)c1ccccc1O | inactive: 23.1% |
| Clc1ccccc1CSc1nnc(C2CCNCC2)o1 | inactive: -0.435% |
| Cc1nc(SCC(=O)Nc2nsc(-c3ccc(C(C)(C)C)cc3)n2)c2c3c(sc2n1)CCCC3 | inactive: -1.45% |
| COc1ccc(N2CCN(S(=O)(=O)CCNC(=O)Cc3ccc(OC)c(OC)c3)CC2)cc1 | inactive: -19% |
| COc1ccc(OC)c(CNC(=O)c2ccc3c(c2)c(C)c(C)n3C)c1 | inactive: -16.9% |
| CCCCN(CC)C(=O)c1nn(-c2ccc(OC)cc2)c(=O)c2c1c1ccccc1n2C | inactive: -0.0554% |
| O=C(Cn1c(=O)n(-c2ccccc2)c(=O)c2ccc(C(=O)NCc3ccc4c(c3)OCO4)cc21)Nc1ccc(Br)cc1 | inactive: -2.75% |
